Assay results from article PMC12136788.
The list shows a part of the results.

B1: chr19:17262551:17262990:-|CDS|ENSG00000130307|control|control|control (ssRNA)
RNA: GGGAGUUCUACAGUCCGACGAUCUGCCAGCGAGAGGCAGCUCGCCUGGCCGAGAGGAAUGCCUGGCUCCGGCUGGCCCUGAGUAGCCGAGAGGAUGAGCUGGUCCGCACGCAGGCCUCCCUGGAGGCCAUCCGAGCUGAGAAGCAACAGAGGAUUGAGCAUCA
B2: ENSG00000196396:stop:overlap|stop_codon|ENSG00000196396|stop_codon|NA|stop_codon (ssRNA)
RNA: GGGAGUUCUACAGUCCGACGAUCCUACGGUCCUCACGGCCGGCGCUUACCUCUGCUACAGGUUCCUGUUCAACAGCAACACAUAGCCUGACCCUCCUCCACUCCACCUCCACCCACUGUCCGCCUCUGCCCGCAGAGCCCACGCAACAGAGGAUUGAGCAUCA
B3: chr12:67313014:67313056:+|3pUTR|ENSG00000111530|msi1_unk|FALSE|overlapping (ssRNA)
RNA: GGGAGUUCUACAGUCCGACGAUCUUUUUGUAGCAUUUAUUUCAGAAAUGUGUAUUUCCAUAAUCCAGAGGUUGUAAAACCACUAGUGUUUUAGUGGUUACAGCAACAUUUGAAAUGGAAACUAAAAGUUAGGAUUUUAUGGAGCAACAGAGGAUUGAGCAUCA
B4: chr8:17969608:17969733:+|CDS|ENSG00000078674|unk|total|mutant (ssRNA)
RNA: GGGAGUUCUACAGUCCGACGAUCUUCUAAUUUUGGAGAUUUUUCUCAGAAUAUCUCUACACCCAGUGAACAGCAGCAACCCUCCGCCCAGAAUUCUUCAGGAAAAACAGAAUAUAUGGCUUUUCCAAAACCUUUUGAAAGCAGCAACAGAGGAUUGAGCAUCA
B5: chr17:57106211:57106324:+|CDS|ENSG00000121057|unk|FALSE|unique (ssRNA)
RNA: GGGAGUUCUACAGUCCGACGAUCUCAUCCCAGGUGGUGGGGCCAGUGCAGGAGGAAGAGUAUGUAGCAGAGAAGUUGCCAAGUAGGUUCAUCGAGUCGGCUCACACAGAGCUGGCAAAGGACGAUGCGGCGCCAGCACCCCCACAACAGAGGAUUGAGCAUCA
B6: chr11:26667019:26671251:-|three_prime_utr|ENSG00000148942|control|control|control (ssRNA)
RNA: GGGAGUUCUACAGUCCGACGAUCACACACACGUGCAAUACACACACACACACACAAACUCCACAUACUUCUUGCCUACUUGUUAGUAGAUAUGUAUAGUUGCCAUUGCUAGAAGACAGGGAUGUCUGGUGCCUAUUUCUACUUCAACAGAGGAUUGAGCAUCA
B7: ENSG00000107863:be:win_1351|CDS|ENSG00000107863|bound_else_gene|NA|bound_elsewhere_windowed (ssRNA)
RNA: GGGAGUUCUACAGUCCGACGAUCGUCCAGAUACGGCAACGCAGUGUGUCCCAAGAAAGACUGGAAGAUUCUGUGCUAAUGAAGUAUUGUCCAAGAAGUGCAUCUCAAGGAGCACUGACGUCUCCAUCUGUUAGUUUUAGUAAUCAACAGAGGAUUGAGCAUCA
B8: chr11:47420279:47420382:-|CDS|ENSG00000165916|unk|total|mutant (ssRNA)
RNA: GGGAGUUCUACAGUCCGACGAUCAAACAGGGUGGACAUCCUGGACCCCGCCCUCCUCCGCUCGGGCCGCCUUGACCGCAAGACCGAGUUCCCGAUGCCCAAUGAGGAGGCCCGGGCCAGAAUCAUGCAGAUCCACUCCCGAAACAACAGAGGAUUGAGCAUCA
B9: chr8:80637648:80637749:-|3pUTR|ENSG00000164684|unk|FALSE|unique (ssRNA)
RNA: GGGAGUUCUACAGUCCGACGAUCUGCGCUUAGCUGCAAAGUGCCUGUCAGCAGCUCCAGGCACCAACAAGGUGCCCUUUUAUUAGACAAUUCCUGCCCGAACAUAACCAUAUUGCAGAUGAAAAUUUUCAAUAGAGAAUGACACAACAGAGGAUUGAGCAUCA
B10: chr5:6669452:6669553:+|3pUTR|ENSG00000145545|unk|total|mutant (ssRNA)
RNA: GGGAGUUCUACAGUCCGACGAUCCAUCUCAUCUGGAGUUUUUAAAUGCCAUUUGUUUCAGUUGUCUUUAACAACAUAAUAAACCGACUUUGCCAUUUAACAAGGCCGCUCAAAUUCUUUUACUAAUUGUUACAUCGAAACAUUCAACAGAGGAUUGAGCAUCA
B11: chr1:17283265:17283432:+|3pUTR|ENSG00000142619|msi1|FALSE|unique (ssRNA)
RNA: GGGAGUUCUACAGUCCGACGAUCCAUGUGGUUCUCAGACUUGAAUCUUCUCGGCCCCCCAAAAAGAAGGACCUCAUUUCUUAUAGCCUCUCCUGUGAUUCAACACAACCCAUGGAGAUGUCCCCUUCUCACUCUGAAAUCAUCCAACAGAGGAUUGAGCAUCA
B12: chr4:76435395:76435496:+|5pUTR|ENSG00000138771|msi1|FALSE|unique (ssRNA)
RNA: GGGAGUUCUACAGUCCGACGAUCUUUUCUCUCCUAAGAAACAAACUAUGAACUGAUUGUUGAAAAAAAGAAGUAAAAAGUUUUAGCACAGCUUCUCUGUCUCUUCGGGACAAGUUAGAAAAUUCUGAAGUGAGCCGAAGCAUACAACAGAGGAUUGAGCAUCA
B13: chr12:56205560:56205676:-|3pUTR|ENSG00000181852|unk|FALSE|unique (ssRNA)
RNA: GGGAGUUCUACAGUCCGACGAUCCUCUUGUGGCACAGGCCAUAAUUGUUCCAUAGACCCCUCUCUAGCCCUGUGACUGUAGUUAGUUACUUUGAUAAUUUUCUUUGGCCAUUGUUUGUUUAUAUUUCACAAACUCCACCUACUCAACAGAGGAUUGAGCAUCA
B14: chr17:2060671:2060772:-|3pUTR|ENSG00000070366|unk|FALSE|unique (ssRNA)
RNA: GGGAGUUCUACAGUCCGACGAUCCCGUGCUCUCGGGUGGCCUCCACCUGCUCCCUCUCUCCUCACUGGCCUUUCUUUCCGUCUAGCUUCCUCUUCAGGAAAUGUCCUGACUCCCCUCAGCUCCCCCUUCACCCCUCCUUGCCCCAACAGAGGAUUGAGCAUCA
B15: chr1:248294618:248295578:-|CDS|ENSG00000177201|control|control|control (ssRNA)
RNA: GGGAGUUCUACAGUCCGACGAUCUGGCUGUGGUGUGCAGAUCUUCUUCCUCCCCACACUGGGUGGUGGAGAGUGCUUCCUCUUAGCAGCCAUGGCCUAUGACCGCUAUGCGGCUGUCUGCCACCCACUCCGAUAUCCCACUCUCAACAGAGGAUUGAGCAUCA
B16: chrX:130625084:130625185:-|3pUTR|ENSG00000165675|msi1|FALSE|unique (ssRNA)
RNA: GGGAGUUCUACAGUCCGACGAUCAGUUCCUUUGAAUUUGUCAGUUCAUUCCUGGAAAAUCUUUUGAGUUAAAAUAAGGAUCCUAGGACAGCACCUCGAACUACAGGCCCUAAAGAGAAAUUGCCUCAAACCACAAGUGCUGUACAACAGAGGAUUGAGCAUCA
B17: chr11:61799969:61800070:-|3pUTR|ENSG00000149485|msi1|FALSE|unique (ssRNA)
RNA: GGGAGUUCUACAGUCCGACGAUCUUCUUUGCCACCUUUUGGGUGUGGUGUCACCAGCCUGUUUAGCCAAGUAGCUUUGGGCAUAGGCUGCCCAAUCUGAGCAAACACCAGUGAGGCUCUAUUGAGCCAAGACCAAGUCCUCAACAACAGAGGAUUGAGCAUCA
B18: chr16:74449243:74449344:-|3pUTR|ENSG00000090863|msi1|total|mutant (ssRNA)
RNA: GGGAGUUCUACAGUCCGACGAUCUCUCCUAUCCUCCCAUCCUCCAGGCCUGUGGUGUGACUUCUGCCCCGAAGUUCCUACUACCGUGAGUCAUCUGGGGAGAGGCCACUGAAAAGAGGCCUUCCCUUCCCAUUUCCUCCCCUGCAACAGAGGAUUGAGCAUCA
B19: ENSG00000107863:be:win_5501|CDS|ENSG00000107863|bound_else_gene|NA|bound_elsewhere_windowed (ssRNA)
RNA: GGGAGUUCUACAGUCCGACGAUCCUGUAAACCGGUUAAAACCAAAAUGCUCAGCCCAGGACCUUUCCAUCUCAGACUGGCUGGCCAGGGAACGCCUACGCACCAGUACCUCUGACCUUAGCAGAGGAGAAAUCGGAGAUCCCCCAACAGAGGAUUGAGCAUCA
B20: ENSG00000106682:stop:overlap|stop_codon|ENSG00000106682|stop_codon|NA|stop_codon (ssRNA)
RNA: GGGAGUUCUACAGUCCGACGAUCCUUCCCCUGGAAGGUUCAGGAGAGUAUUUGUCGCCUGGUUGCUUUUACAUCAUGCUGAUUAGACCUGCACACCCGGGCAUGAAAUGAGUGUGAUUGCAUCAUUUUCAUAGAACCUAAUGGCAACAGAGGAUUGAGCAUCA
B21: chr11:20156216:20156573:-|CDS|ENSG00000109851|control|control|control (ssRNA)
RNA: GGGAGUUCUACAGUCCGACGAUCAUCUGGUUCCAGAACCGACGCAUGAAAUGGCGGAACUCCAAGGAGCGCGAACUCCUGUCUAGCGGGGGCUGUCGCGAGCAGACCCUGCCCACCAAGCUCAAUCCGCACCCGGACCUCAGCCAACAGAGGAUUGAGCAUCA
B22: chr15:58589816:58589917:-|3pUTR|ENSG00000137845|unk|FALSE|unique (ssRNA)
RNA: GGGAGUUCUACAGUCCGACGAUCAUUCAUUUGCUGAAGAGCUGGCUUGUACUUUGGCAGGUGUCAUACUUGGUUAUUCUCCUUAGGAUAUUGGCCCAACAAUCUGGGAGUUGUGAAAGGCGCUUCGCUUUUCAGACCUGGGCGCAACAGAGGAUUGAGCAUCA

Target: MSI1 full-length (mouse, UniProt Q61474 1-362)
Chain of UniProt Q61474 (Q61474 whole entry): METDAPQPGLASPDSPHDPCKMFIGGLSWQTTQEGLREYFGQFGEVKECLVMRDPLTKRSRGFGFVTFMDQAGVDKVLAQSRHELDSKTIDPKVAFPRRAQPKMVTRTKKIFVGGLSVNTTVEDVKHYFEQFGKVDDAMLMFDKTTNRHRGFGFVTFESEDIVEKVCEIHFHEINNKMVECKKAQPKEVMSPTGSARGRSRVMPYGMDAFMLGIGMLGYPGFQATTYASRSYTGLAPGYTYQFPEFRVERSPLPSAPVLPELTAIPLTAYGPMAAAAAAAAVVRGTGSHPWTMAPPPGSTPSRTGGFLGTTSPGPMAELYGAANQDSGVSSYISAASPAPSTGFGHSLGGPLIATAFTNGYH
Assay: nsRBNS (natural sequence RNA bind-n-seq); RBNS binding buffer (assumed for nsRBNS): 25 mM Tris pH 7.5, 150 mM KCl, 3 mM MgCl2, 0.01% Triton X-100, 500 ug/ml BSA, 20 U/ml SUPERase-In, 4 C; UNK is unkempt and MSI1 is Musashi-1; names of the RNAs are library labels; protein concentration not given here; high values mean tight binding

Row | Binder | binding signal [enrichment R]
1 | B1 | 0.412
2 | B2 | 0.27
3 | B3 | 0.408
4 | B4 | 0.293
5 | B5 | 4.47
6 | B6 | 4.7
7 | B7 | 4.82
8 | B8 | 0.42
9 | B9 | 1
10 | B10 | 0.413
11 | B11 | 0.371
12 | B12 | 2.25
13 | B13 | 11.2
14 | B14 | 0.815
15 | B15 | 0.421
16 | B16 | 0.482
17 | B17 | 0.723
18 | B18 | 0.452
19 | B19 | 0.497
20 | B20 | 0.516
21 | B21 | 0.3
22 | B22 | 0.378
